This passage reports activation results from PubChem BioAssay AID1346428 (National Center for Advancing Translational Sciences (NCATS), 2018).

The campaign covered roughly 48,000 compounds. About 1,200 (2.5%) were called active. Another 2% or so got no clear call; they are omitted.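 Rule for the calls: active = activation of at least 60% and not above a set upper limit (about 1 call in 100 departs from these limits); inconclusive = activation of 40% to 60%, or above that upper limit; inactive = activation under 40%.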 The list shows a part of the results.

For this test, the target named is Probable G-protein coupled receptor 32 (Homo sapiens) (UniProt O75388). The experiment in a line: qHTS for Agonists of Human Resolvin D1 Receptor DRV1. Note: 0% is about no effect. The note with it: CHO-K1 GPR32 beta-arrestin PathHunter luminescence, 90 min; at 76.9 µM; active compounds read high; zero percent set by DMSO-only wells. Put shortly: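 Agonism was scored by beta-Gal fragment complementation (chemiluminescent read, 1 h detection at ambient temperature) reporting beta-arrestin binding to GPR32 in engineered CHO-K1 cells. Compound treatment lasted 90 min at 37 C, normalized to a DMSO basal control.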
Sequence of UniProt O75388 (O75388 whole entry, looked up, the tested form may be a part): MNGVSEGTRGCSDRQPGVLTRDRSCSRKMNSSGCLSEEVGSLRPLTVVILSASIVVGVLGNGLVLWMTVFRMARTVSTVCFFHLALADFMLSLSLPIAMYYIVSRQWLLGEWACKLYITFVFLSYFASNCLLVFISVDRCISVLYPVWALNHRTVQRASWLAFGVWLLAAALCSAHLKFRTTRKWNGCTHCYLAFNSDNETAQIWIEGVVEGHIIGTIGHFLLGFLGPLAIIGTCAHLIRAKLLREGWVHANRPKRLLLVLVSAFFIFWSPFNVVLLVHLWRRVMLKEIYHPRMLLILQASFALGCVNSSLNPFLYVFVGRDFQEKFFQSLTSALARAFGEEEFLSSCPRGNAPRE
For orientation: Quantitative high-throughput screening tests each substance at several concentrations.
`COC(=O)c1sc(NC(=O)c2cc3nc(-c4ccc(Br)cc4)cc(C(F)(F)F)n3n2)c(C(=O)OC)c1C`: the activation is inactive: -20.5%.

Consider `O=C(Cn1ccc2cc(S(=O)(=O)N3CCCCC3)ccc21)NCCc1ccc(Cl)cc1`, for which the activation was inactive: -12.8%. The result for `Cc1cc(C)cc(OCC(=O)NCC2(N(C)C)CCCCC2)c1` reads inactive: -5.05%. In the case of `Cc1ccc(C)c(N2CCN(c3cc(C)nc4c(-c5ccc(Cl)cc5)c(C)nn34)CC2)c1`, the activation was inactive: -5.43%.

Regarding `CC(C)CCNC(=O)[C@@H](c1ccccc1)N1Cc2ccccc2C1=O`, the activation is inactive: -8.01%. `CCOc1ccc(NC(=O)Cn2nnc(C(=O)Nc3ccc(OCC)cc3)c2N)cc1`: the activation is inactive: 23.1%. The result for `CCc1nn(CC(=O)NC(C)c2ccccc2)c(=O)c2cc3sccc3n12` (stereo not drawn) reads inactive: -14.1%; that for `CCOC(=O)C1=C(CS(=O)(=O)c2ccc(F)cc2)NC(=O)NC1c1ccc(OCC)c(OC)c1` (stereo not drawn), inactive: -1.44%. With `Cc1ccc(S(=O)(=O)N2CCC(c3ccncc3)CC2)c(C)c1`, the activation was inactive: 8.54%. The result for `CCCc1cc(=O)n2[nH]c(NCc3ccccc3OC)nc2n1` reads inactive: 10.7%. For `O=C(COc1ccccc1-c1nc(-c2ccccc2)no1)Nc1ccccc1[N+](=O)[O-]` the value was inactive: 2.76%. For `CC(=O)Nc1ccc(C2Nc3c(C)cc(C)cc3-c3cc(C)nn32)cc1` (stereo not drawn) the value was inactive: -1.91%; for `Cc1ccc(S(=O)(=O)NCCSc2nnnn2-c2ccc(Cl)c(C(=O)O)c2)cc1`, inactive: -5.03%; for `COc1cc(OC)c(NS(=O)(=O)c2ccc3c(c2)NC(=O)CCS3)cc1Cl`, inactive: 43.2%. Regarding `Cc1cc(C)cc(Nc2sc(C(=O)c3ccccc3)c(N)c2S(=O)(=O)c2ccccc2)c1`, the activation was inactive: -7.37%.

Regarding `CCOC(=O)c1c(C)oc2nc(C)nc(NCc3ccccc3OCC)c12`, the activation is inactive: -14.3%.

Regarding `CCOC(=O)c1ccc(NC(=O)C(Cc2ccccc2)NS(=O)(=O)c2ccc(Br)s2)cc1` (stereo not drawn), the activation is inactive: 14%.

With `CCCc1nc2ccccc2n2c(-c3cccc(C)c3)c3c(=O)n(C)c(=O)n(C)c3c12`, the activation was inactive: -17.6%. The result for `O=C(NCc1ccccc1Cl)C1CCCN(c2ncnc3onc(-c4ccc(F)cc4)c23)C1` (stereo not drawn) reads inactive: -18%; that for `Cn1c(=O)c2c(nc(NCc3ccccc3)n2Cc2ccccc2Cl)n(C)c1=O`, inactive: 4.54%; that for `O=C(C1CC1)N1CCN(c2nc3ccc(F)cc3s2)CC1`, inactive: -2.02%. The result for `CN(C)S(=O)(=O)c1ccc2c(c1)nnn2CCNC(=O)Nc1ccc(Br)cc1` reads inactive: 1.99%; that for `COc1cccc(OCc2nc3ccccc3n2CCOc2ccccc2C)c1`, inactive: -28.7%; that for `CCCCOc1ccc(CNC(=O)c2cnc3sc(N4CCOCC4)nn3c2=O)cc1`, inactive: -10.3%.

On to `CCOC(=O)C(C)Oc1cccc2c(=O)n(CC(=O)Nc3ccc4c(c3)OCCO4)ccc12` (stereo not drawn), for which the activation is inactive: 15.1%. As to `O=C(CCn1ccc2cc(S(=O)(=O)N3CCCC3)ccc21)NCc1cccc(Br)c1`, the activation is inactive: -25.8%. The result for `Cn1nnc2c(C(N)=O)ncn2c1=O` reads inactive: -4.58%.

As for `COc1ccc(CCNC(=O)CCCCn2c(=O)c3ccccc3n(Cc3ccc(F)cc3Cl)c2=O)cc1OC`, the activation was inactive: -4.94%. `Cc1ccc(C(=O)NCC(c2cccnc2)N2CCc3ccccc32)cc1C` (stereo not drawn): the activation was inactive: -31.8%. The result for `Cc1ccc(-c2nc3ncccc3o2)cc1NC(=O)c1cccc(OCC(C)C)c1` reads inactive: 18.6%; that for `Cc1ccc(C)c(Nc2nn3c(=O)c4ccc(C(=O)NC5CCCCC5)cc4nc3s2)c1`, inactive: 11.4%. `Cc1c(C)n(Cc2ccccc2)c2ccc(C(=O)NCc3ccco3)cc12`: the activation was inactive: -20.9%. As for `Cc1cc(NC(=O)c2cc(-c3ccc(Cl)cc3)on2)nn1Cc1ccc(Cl)cc1`, the activation was inactive: 4.03%. Regarding `CCC1CN(C(=O)Nc2cc(C)cc(C)c2)c2ccccc2O1` (stereo not drawn), the activation is inactive: -35.2%. On to `CCc1ccc(NC(=O)Cn2c(=O)n(CCC(=O)NCc3ccc4c(c3)OCO4)c(=O)c3ccccc32)cc1`, for which the activation is inactive: -4.89%.

On to `Cc1c(-c2nsc(NC(=O)c3cccs3)n2)nnn1-c1ccc(Br)cc1`, for which the activation was inactive: -6.68%.

Turning to `Cc1cccc(CN2CCc3nc(N4CCN(c5ccccn5)CC4)ncc3C2)c1`, the activation was inactive: 13.2%. For `O=C(NCc1ccccc1Cl)c1ccc2c(O)c(S(=O)(=O)c3ccccc3)c(=O)[nH]c2c1` the value was inactive: 5.16%; for `Cc1ccc(CNC(=O)CN2C(=O)C3CCCCN3c3ccc(C(=O)N4CCCC4)cc32)cc1` (stereo not drawn), inactive: -24.1%. The result for `O=C(NCCSc1c(-c2ccc(F)cc2)[nH]c2ccccc12)c1ccc(S(=O)(=O)N2CCOCC2)cc1` reads inactive: -20%; that for `COc1cccc(NC(=O)C2CCN(C(=O)N3CC(C)Oc4ccccc43)CC2)c1` (stereo not drawn), inactive: -4.42%; that for `COc1cccc(Cn2c(=O)n(-c3ccccc3C)c(=O)c3c2c2cc(C)ccc2n3C)c1`, inactive: -5.26%. Take `Cc1cccc(Cc2c(C)nc3nc(SCc4ccccc4C)nn3c2C)c1`: the activation was inactive: -19.9%. The result for `Cc1ccc(C)c(NC(=O)CN(CCc2ccccc2)S(=O)(=O)c2ccccc2)c1` reads inactive: 17.3%; that for `COc1cccc(-n2c(SCc3ccccc3C)nc3c([nH]c4ccccc43)c2=O)c1`, inactive: -15.4%; that for `CC(=O)c1ccc(NC(=O)CCc2c(C)nc3cc(-c4ccc(Cl)cc4)nn3c2C)cc1`, inactive: 24%. For `CC1=C(C(N)=O)C(c2cccc(F)c2)n2nc(SCc3ccccc3)nc2N1` (stereo not drawn) the value was inactive: -4.36%; for `O=c1cc(-c2ccccc2)n2c(SCc3ccc([N+](=O)[O-])cc3)nnc2[nH]1`, inactive: 4.24%.

In the case of `COC(=O)c1ccccc1NC(=O)c1ccc2c(c1)CCN2S(=O)(=O)c1ccc(C)cc1`, the activation was inactive: -3.76%. For `O=C(O)Cn1nc(N2CCN(c3ccc(F)cc3)CC2)ccc1=O`, the activation was inactive: 4.6%. For `CCc1ccc(C(=O)c2cnc3ccc(C)cc3c2S(=O)(=O)c2ccc(OC)cc2)cc1` the value was inactive: -19%; for `COc1ccccc1CNC(=O)c1cc(Sc2cccc(Cl)c2)nc2ccccc12`, inactive: -32.5%; for `COc1cc(OC)c(NC(=O)C2=C(C)C(=O)OC23CCCCC3)cc1Cl`, inactive: -18.2%.
